Assay results as given in PubChem BioAssay AID894 (National Center for Advancing Translational Sciences (NCATS), 2007).
Screen size: about 150,000 compounds; about 6,500 (4.3%) were called active. The inconclusive results got no clear call from the source; some entries with a clear call stand among them for comparison. Calls come from the whole dose curve; as a rule, active = well fitted inhibition curve with a large enough effect (not every such curve was filed as active); inconclusive = small, poorly fitted or top-dose-only effect, or another doubt; inactive = no such curve, though single readings can be large or run the other way. No potency is given beside an inconclusive call; the fits are too rough.

target: 15-hydroxyprostaglandin dehydrogenase [NAD(+)] (Homo sapiens) (UniProt P15428); experiment: qHTS Assay for Inhibitors of HPGD (15-Hydroxyprostaglandin Dehydrogenase); details: purified HPGD, NADH fluorescence kinetic, PGE2 substrate; activity change, negative = inhibition: active compounds read low
UniProt P15428, sequence (P15428 whole entry, looked up): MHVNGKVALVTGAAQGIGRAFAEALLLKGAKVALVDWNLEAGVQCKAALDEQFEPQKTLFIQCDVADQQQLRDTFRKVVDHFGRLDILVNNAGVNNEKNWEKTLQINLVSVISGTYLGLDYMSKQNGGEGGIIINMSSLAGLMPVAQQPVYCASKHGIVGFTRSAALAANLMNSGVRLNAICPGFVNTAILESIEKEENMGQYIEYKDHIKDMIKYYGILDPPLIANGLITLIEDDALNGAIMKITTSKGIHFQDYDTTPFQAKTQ
Procedure, shortened: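 NADH formation kinetics: reaction with 30 uM PGE2 and 1 mM NAD+ (final), 20 nM enzyme, Tris-HCl pH 8 with Tween 20, after 15 min compound preincubation at room temperature. Fluorescence change, last versus first of five reads.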
% is set by controls: 0 for no effect and ±100 for the full control effect; potency is the fitted concentration of half-maximal effect; tags give direction and shape of the fitted curve.

SMILES | Potency | activity change, negative = inhibition
CCOC(=O)c1nnn(CC(=O)N2N=C(c3cccc4ccccc34)CC2c2ccccc2)c1C(=O)OCC (stereo not given) | inconclusive [inhibitor, partial curve] | 
CCCCCO |  | inactive: -1.39%
Fc1ccc(Nc2nc(Oc3ccccc3F)nc(N3CCCC3)n2)cc1 | inconclusive [inhibitor, single point] | 
CC(=Nc1ccccc1)C1=C(O)CSC1=O |  | inactive: -17.7%
CCc1nc(SCc2cccnc2)[nH]c(=O)c1C | active: 25.1 µM | 
COc1cc2c(cc1NC(=O)COC(=O)C(CCSC)NC(=O)c1ccccc1Cl)oc1ccccc12 (stereo not given) | inconclusive [inhibitor, partial curve] | 
Fc1ccccc1N1CC(c2ccccc2)C(c2cccs2)=N1 (stereo not given) | inconclusive [inhibitor, partial curve] | 
Oc1ccc(/C=N/Nc2ncc(Br)cn2)c(O)c1 | inconclusive [inhibitor, partial curve] | 
C/C(=N\NC(=O)c1nn(C)c(C)c1Br)c1ccc(NC(=O)c2ccoc2C)cc1 | inconclusive [inhibitor, partial curve] | 
CCOC(=O)N1CCN(C(=O)C2CCN(c3ncnc4c3sc3cccc(F)c34)CC2)CC1 | inconclusive [inhibitor, partial curve] | 
Cc1csc2nc3ccccc3c(=O)n12 | inconclusive [inhibitor, partial curve] | 
Cc1ccc(-n2c(C)cc(/C=N/NC(=O)Cn3c4ccccc4c(=O)c4ccccc43)c2C)cc1 | inconclusive [inhibitor, partial curve] | 
COc1ccc(-c2ccc(Nc3ccc(C(=O)N4CCOCC4)cc3)nn2)cc1OC | active: 17.8 µM | 
CSc1cc(/C=N/O)c(SC)s1 | active: 11.2 µM | 
COCCN1C=C(C(=O)OC)C(c2ccc(OC)c(OC)c2)C(C(=O)OC)=C1 | inconclusive [inhibitor, partial curve] | 
O=C(Nc1nccs1)c1cc2sccc2n1Cc1ccc(Cl)cc1 | inconclusive [inhibitor, partial curve] | 
C=CCN1c2ccccc2[C@]23C[C@@H](C(=O)OC)N(S(=O)(=O)c4cccs4)C2=NC(C(=O)OC)=C(C(=O)OC)[C@H]13 |  | inactive: 2.06%
C/C(N)=C(/C#N)C(=O)CSc1nnc(Nc2ccccc2C)s1 | active: 28.2 µM | 
Cc1nc(N2CCOCC2)c2nc(-c3ccccc3)n(CCCN3CCOCC3)c2n1 | inconclusive [inhibitor, partial curve] | 
COc1ccc(CCNC(=O)c2cc3ccccn3n2)c(OC)c1OC | inconclusive [inhibitor, partial curve] | 
Cn1nc(-c2ccc(C(=O)O)cc2)c2ccccc2c1=O | active: 7.94 µM | 
CCCC(C(=O)NC1CCCC1)N(Cc1cccs1)C(=O)c1snc(C(N)=O)c1N (stereo not given) | inconclusive [inhibitor, partial curve, poor fit] | 
COCCNC(=O)c1ccc(CN2CCc3ccccc3C2)cc1 | active: 14.1 µM | 

SMILES | Potency | activity change, negative = inhibition
O=C(O[C@@H]1OC2COC(=O)c3cc(O)c(O)c(O)c3-c3c(cc(O)c(O)c3O)C(=O)O[C@@H]([C@H]1O)[C@@H]2O)c1cc(O)c(O)c(O)c1 | active: 1.78 µM | 
Cn1c(O)c(N=N/C(=N/c2ccccn2)c2ccccn2)c2cc(Br)ccc21 | active: 22.4 µM | 
Cc1csc(N)n1 |  | inactive: -14.7%
COc1ccc(-c2nsc3c(N4CCN(S(=O)(=O)c5ccccc5F)CC4)ncnc23)cc1 | inconclusive [inhibitor, single point] | 
c1cncc(-c2nc(-c3ccco3)cs2)c1 | inconclusive [inhibitor, partial curve] | 
CN(C)c1cccc(C(=O)Nc2cccc(F)c2)c1 | inconclusive [inhibitor, single point] | 
C=CCn1cc(-c2ccc(Cl)cc2)cc(C#N)c1=O | inconclusive [inhibitor, partial curve] | 
COc1ccc(OC)c2sc(N3CCCCC3)nc12 | active: 15.8 µM | 
CCCc1cc2c(=O)c(-c3ccc4c(c3)OCCO4)c(C)oc2cc1OS(C)(=O)=O |  | inactive: -12.2%
COc1ccc(S(=O)(=O)N2CCC(C(=O)N3CCc4ccccc4C3)CC2)cc1 | active: 35.5 µM | 
Cc1ccc(-c2csc3nnc(SCC(=O)NCc4ccco4)n23)cc1 |  | inactive: -10.8%
Cc1cccc(CSc2cccc3cccnc23)c1 | inconclusive [inhibitor, single point] | 
COc1cc(C(=O)Nc2cccc(-c3nc4cc(C)ccc4o3)c2)cc(OC)c1OC | inconclusive [inhibitor, partial curve] | 
COc1ccccc1CN(CC(=O)NCc1ccc2c(c1)OCO2)C(=O)c1ccc2c(c1)OCCO2 |  | inactive: -1.49%
Cc1cc(/C=C2\C(=N)N3C(SCc4ccccc4)=NSC3=NC2=O)c(C)n1Cc1ccccc1 | inconclusive [inhibitor, partial curve] | 
CN(C)CCC(=O)[C@@]1(O)CC[C@H]2[C@H]3CC=C4C[C@@H](O)CC[C@]4(C)[C@H]3CC[C@]21C |  | inactive: -10.6%
O=C(c1ccc2c(=O)n(Cc3ccc4c(c3)OCO4)c(=S)[nH]c2c1)N1CCCCC1 | active: 0.398 µM | 
COc1ccc(/C=C2\SC(=NCc3ccccc3)NC2=O)cc1 | inconclusive [inhibitor, partial curve] | 
CCCCOc1ncnc2c1[nH]c1ccccc12 | inconclusive [inhibitor, partial curve] | 
N#C/C(=C\c1cc(Cl)cc(Cl)c1O)C(=O)NC1CCCCC1 | inconclusive [inhibitor, partial curve] | 
C=CCSc1n[nH]c(-c2ccc(OCCCC)cc2)n1 | active: 15.8 µM | 
CCOC(=O)c1cnc2c(ccc3ccccc32)c1NCCO | inconclusive [inhibitor, partial curve] | 
